Test results: the supplement of paper PMC12067230;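 active = nucleation score significantly above 0 at FDR 0.05; inactive = not significantly above 0 or absent from output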
This is a noisy data set.

test: amyloid nucleation score relative to library mode (yeast Sup35 reporter selection) (log enrichment difference); higher = more amyloid nucleation; sequences are the first 22 residues of the Bri2 peptide extended by up to 12 random residues; conditions: random library (experiment): 1
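Also: [psi-pin-] Saccharomyces cerevisiae expressing SupN fusions, induced by 100 µM Cu2SO4, selected 7 d at 30 °C without adenine and uracil, scored by deep sequencing of output versus input.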

Sequence | amyloid nucleation score
EASNCFAIRHFENKFAVETLICIVGLYMLTTPCQ | -0.0846
EASNCFAIRHFENKFAVETLICCYC | 5
EASNCFAIRHFENKFAVETLICLGKVSFTGGWYS | 4.69
EASNCFAIRHFENKFAVETLICPELRY | -0.822
EASNCFAIRHFENKFAVETLICVAVPSWGVGRPV | inactive
EASNCFAIRHFENKFAVETLICYRRFRLGTLWQE | inactive
EASNCFAIRHFENKFAVETLICYNGLLG | 6.98
EASNCFAIRHFENKFAVETLICACATSVALGSGA | 3.89
EASNCFAIRHFENKFAVETLICGAPP | inactive
EASNCFAIRHFENKFAVETLICVIKPLDFASSRT | 4.34
EASNCFAIRHFENKFAVETLICCEMTSNVDETLS | 3.81
EASNCFAIRHFENKFAVETLICGVDATPLYSSST | -0.418
EASNCFAIRHFENKFAVETLICLWTGVRVPLSSW | inactive
EASNCFAIRHFENKFAVETLICYRWVGYLKCPVG | -0.331
EASNCFAIRHFENKFAVETLICAMSEHAAVLKCS | inactive
EASNCFAIRHFENKFAVETLICVDSQGLVMRRVP | 4.02
EASNCFAIRHFENKFAVETLICFAVFLLTFVPIR | 4.76
EASNCFAIRHFENKFAVETLICAWHSRACPVGER | inactive
EASNCFAIRHFENKFAVETLICGCWIGGRRRA | inactive
EASNCFAIRHFENKFAVETLICGLFRLTYDGCVR | inactive

Sequence | amyloid nucleation score
EASNCFAIRHFENKFAVETLICFSDPNAMLMFVE | inactive
EASNCFAIRHFENKFAVETLICQVAETRAGQTAE | inactive
EASNCFAIRHFENKFAVETLICDERGLYVAPGAR | inactive
EASNCFAIRHFENKFAVETLICQRMRYCGPEVTR | inactive
EASNCFAIRHFENKFAVETLICLGMDVTVGPPNA | -0.302
EASNCFAIRHFENKFAVETLICLTVIR | inactive
EASNCFAIRHFENKFAVETLICYTCRIRHMRRYK | inactive
EASNCFAIRHFENKFAVETLICIGHLWTSDYCRM | 3.82
EASNCFAIRHFENKFAVETLICGFNTRIILTYVS | -0.12
EASNCFAIRHFENKFAVETLICGLHQVSSRVDWR | 0.369
EASNCFAIRHFENKFAVETLICKML | inactive
EASNCFAIRHFENKFAVETLICLMCVCAESWSMS | 9.03
EASNCFAIRHFENKFAVETLICLGVAGLG | inactive
EASNCFAIRHFENKFAVETLICYSSKNYCSVHLQ | -0.773
EASNCFAIRHFENKFAVETLICLDQSRGAMEWYF | 5.16
EASNCFAIRHFENKFAVETLICFACVTLSSAWLL | inactive
EASNCFAIRHFENKFAVETLICRAMFALGRCKMV | 0
EASNCFAIRHFENKFAVETLICWFVR | 0.928
EASNCFAIRHFENKFAVETLICLIVFGLHQAKSS | inactive
EASNCFAIRHFENKFAVETLICCQS | 5.49

Sequence | amyloid nucleation score
EASNCFAIRHFENKFAVETLICFPSDIRFWIRLA | inactive
EASNCFAIRHFENKFAVETLICLPAIKTNRCGYS | inactive
EASNCFAIRHFENKFAVETLICISWCTWLVRMPH | inactive
EASNCFAIRHFENKFAVETLICIRDRGTMVWLSG | inactive
EASNCFAIRHFENKFAVETLICKCYTYIQYDSSR | 1.12
EASNCFAIRHFENKFAVETLICLRTMGRAEEVSG | inactive
EASNCFAIRHFENKFAVETLICDTSTCGVQWITA | inactive
EASNCFAIRHFENKFAVETLICMCRLVKVLMCAQ | 1.29
EASNCFAIRHFENKFAVETLICVLGFG | inactive
EASNCFAIRHFENKFAVETLICLPESCGTKPNQL | inactive
EASNCFAIRHFENKFAVETLICHHAYGIQKFSSR | 2.15
EASNCFAIRHFENKFAVETLICCSLEWL | 9.55
EASNCFAIRHFENKFAVETLICGRLTT | 2.86
EASNCFAIRHFENKFAVETLICESQGARNLWCRR | 0.683
EASNCFAIRHFENKFAVETLICCLRDDLQMVRWV | -0.627
EASNCFAIRHFENKFAVETLICFTF | 6.7
EASNCFAIRHFENKFAVETLICVAALPSLAPSSR | 4.59
EASNCFAIRHFENKFAVETLICRLVSHR | inactive

same assay, conditions: random library (experiment): 2

Sequence | amyloid nucleation score
EASNCFAIRHFENKFAVETLICYCMTCEIGGAFN | 7.72
EASNCFAIRHFENKFAVETLICFYSRSRNGFWFL | inactive
